Among all 52,000 compounds or so, about 4,300 (8.3%) were called active. No stated cut-off is given here; in the data, active means survival mostly below about 52% (no sharp cut-off); inactive means mostly above about 56%. This is one part of the list.
Test system: DeltatarO mutant
Assay: S. aureus survival, RN4220 and DeltatarO strains – OD600, teichoic acid synthesis inhibitors, primary screen (AID 463173)
Settings: S. aureus RN4220 wild type/DeltatarO growth, OD600, 18 h, hits give low values, screened at 18.75 µg/mL (by protocol)

Question: Which survival does the source give for `Cc1nc2ccccc2n1CC(O)COc1ccc(C(=O)O)cc1` (configuration not stated) here?
Answer: Its survival is active: 46%.

Question: `CCOC(=O)c1cc2occc2n1CC(=O)N1CCCc2ccccc21` was tested. Which survival did it give?
Answer: The survival was inactive: 101%.

Question: For `COCC(C)NC(=O)c1ccc2c(c1)OCO2` (configuration not stated), which survival is on record?
Answer: The survival was inactive: 78%.

Question: With `COc1cccc(CNC(=O)c2ccc(Cn3c(SCc4ccccc4)nc4cccnc43)cc2)c1` as the molecule, how does the survival read?
Answer: Its survival is inactive: 74%.

Question: `COc1ccccc1Nc1cc(C(=O)NCCCN(C)c2ccccc2)c2ccccc2n1` was tested. Which survival did it give?
Answer: Its survival is inactive: 80%.

Question: With `COc1cc(Cl)ccc1Nc1ncc(C(=O)N2CCN(c3ccccc3OC)CC2)c2ccccc12` as the molecule, how does the survival read?
Answer: Its survival is inactive: 66%.

Question: With `COc1ccc(OC)c(-c2cc(C(=O)Nc3cccc(Cl)c3C)no2)c1` as the molecule, how does the survival read?
Answer: Its survival is active: 2%.

Question: How did the survival turn out when `COc1ccc(-n2nc(C(=O)N3CCN(c4ccccc4OC)CC3)c3c4ccccc4n(C)c3c2=O)cc1` was run?
Answer: Its survival is inactive: 92%.

Question: Which survival does the source give for `CCOC(=O)c1ccc(NC(=O)C(CC)Sc2nc3ncccc3[nH]2)cc1` (configuration not stated) here?
Answer: Its survival is inactive: 74%.

Question: With `COc1ccc(N2CC(NC(=O)c3ccc(S(=O)(=O)N4CCCC4)cc3)CC2=O)cc1` (configuration not stated) as the molecule, how does the survival read?
Answer: Its survival is inactive: 112%.

Question: How did the survival turn out when `COc1cccc(N2CC(NC(=O)/C=C\c3ccc4c(c3)OCO4)CC2=O)c1` (configuration not stated) was run?
Answer: The survival was inactive: 98%.

Question: For `Cc1cc(C)nc(SCC(=O)C(C)(C)C)n1`, which survival is on record?
Answer: Its survival is inactive: 99%.

Question: For `OC(COc1cccc2ccccc12)CN1CCOCC1` (configuration not stated), which survival is on record?
Answer: Its survival is inactive: 90%.

Question: How did the survival turn out when `Cc1ccc(NS(=O)(=O)c2ccc(NC(=O)N3CCCC3)cc2)cc1C` was run?
Answer: Its survival is inactive: 75%.

Question: `Cc1ccc(-n2c3nc(=O)n(C)c(=O)c-3cc3c(Cl)cccc32)c(C)c1` was tested. Which survival did it give?
Answer: The survival was inactive: 82%.

Question: For `CCn1c(C(=O)N2CCC(C(=O)NCCc3ccccc3)CC2)cc2sccc21`, which survival is on record?
Answer: The survival was inactive: 72%.

Question: For `CCC(Sc1nnc(-c2ccc(OC)cc2)c(-c2ccc(OC)cc2)n1)C(=O)NC1CCCCC1` (configuration not stated), which survival is on record?
Answer: The survival was inactive: 78%.

Question: For `CC1CCCN(S(=O)(=O)c2ccc(NC(=O)c3nc(SC(C)C)ncc3Cl)cc2)C1` (configuration not stated), which survival is on record?
Answer: Its survival is active: 44%.

Question: With `O=C(C1CCCO1)N1CCc2ccccc21` (configuration not stated) as the molecule, how does the survival read?
Answer: Its survival is inactive: 71%.

Question: For `CCCCN(Cc1ccccc1)C(=O)c1oc(=O)c2ccccc2c1-c1ccc(C)cc1`, which survival is on record?
Answer: The survival was active: 8%.

Question: How did the survival turn out when `O=C1c2ccccc2C(=O)N1c1ccc(S(=O)(=O)N2CCOCC2)cc1` was run?
Answer: Its survival is inactive: 80%.

Question: How did the survival turn out when `COc1ccccc1/C=C/c1nc(C#N)c(N2CCCCCC2)o1` was run?
Answer: The survival was inactive: 78%.

Question: With `CC(C)OC(=O)CC12CN3CC(CC(=O)OC(C)C)(CN(C1)C(=O)c1ccccc1C3=O)C2=O` as the molecule, how does the survival read?
Answer: Its survival is inactive: 98%.

Question: `CCOc1ccccc1C(=O)Nc1c(NC)c2ccccc2oc1=O` was tested. Which survival did it give?
Answer: The survival was inactive: 78%.

Question: For `Cc1ccc(-n2ccnc(NCc3ccccc3)c2=O)cc1C`, which survival is on record?
Answer: The survival was inactive: 89%.

Question: With `O=C(NCc1cccc(F)c1)C1=Cc2cc(Br)ccc2OC1` as the molecule, how does the survival read?
Answer: The survival was inactive: 78%.

Question: With `Cn1c(=O)oc2cc(S(=O)(=O)N3CCCC(C(=O)Nc4ccc(Br)cc4F)C3)ccc21` (configuration not stated) as the molecule, how does the survival read?
Answer: The survival was inactive: 97%.

Question: How did the survival turn out when `O=C(Nc1cc(C(F)(F)F)ccc1Cl)c1cc2nc(-c3ccc4c(c3)OCO4)cc(C(F)(F)F)n2n1` was run?
Answer: The survival was inactive: 95%.

Question: With `CCc1ccccc1NC(=O)CN1C(=O)CCc2cc(S(=O)(=O)N3CCCCC3)ccc21` as the molecule, how does the survival read?
Answer: The survival was inactive: 95%.

Question: For `Cc1ccc(CNC(=O)c2ccc(CSCc3ccc(Cl)cc3)o2)cc1`, which survival is on record?
Answer: Its survival is inactive: 79%.

Question: For `CCCCNS(=O)(=O)c1ccc2nc(NC(=O)c3cccnc3)sc2c1`, which survival is on record?
Answer: Its survival is inactive: 79%.

Question: With `Cc1cn(C)c(CC(=O)Nc2cccc(Cl)c2C)c1C(=O)O` as the molecule, how does the survival read?
Answer: The survival was inactive: 99%.

Question: `CCc1ccc(NC(=O)c2ccc(F)c(S(=O)(=O)N3CCC(C)CC3)c2)cc1` was tested. Which survival did it give?
Answer: Its survival is inactive: 91%.

Question: Which survival does the source give for `Cc1cc(C)cc(NC(=O)CN2C(=O)c3ccccc3Sc3ccc(C(=O)N4CCOCC4)cc32)c1` here?
Answer: The survival was inactive: 89%.

Question: For `COc1cc2c(cc1NS(=O)(=O)c1cccc(C#N)c1)n(C)c(=O)n2C`, which survival is on record?
Answer: The survival was inactive: 87%.

Question: How did the survival turn out when `Cc1ccc(C)c(Cn2nnc(C(=O)NCc3ccc(Cl)cc3Cl)c2N)c1` was run?
Answer: Its survival is inactive: 62%.

Question: How did the survival turn out when `CCOC(=O)c1cc2c(ccn2-c2ccc(F)cc2)n1CC(=O)NC1CCCCC1` was run?
Answer: The survival was inactive: 98%.

Question: How did the survival turn out when `COc1ccc(OCCCn2c(=O)oc3ccc(C)cc32)cc1` was run?
Answer: The survival was inactive: 39%.

Question: Which survival does the source give for `CCOC(=O)CNc1cccc(Cl)c1` here?
Answer: Its survival is inactive: 90%.

Question: With `Cc1ccc(C)c(N(C)C(=O)C2CCN(c3ncnc4c3nc3n4CCCCC3)CC2)c1` as the molecule, how does the survival read?
Answer: The survival was inactive: 67%.

Question: With `CCN(CC)C(=O)/C(=C\c1ccc(OC)c(OC)c1)n1ccccc1=O` as the molecule, how does the survival read?
Answer: Its survival is inactive: 103%.

Question: With `COc1ccc(CCNC(=O)CCCCCn2c(SCC(N)=O)nc3cc4c(cc3c2=O)OCO4)cc1OC` as the molecule, how does the survival read?
Answer: Its survival is inactive: 74%.

Question: `Cc1ccc(S(=O)(=O)N2CCCc3cc(NC(=O)c4ccccc4Cl)ccc32)cc1` was tested. Which survival did it give?
Answer: The survival was inactive: 94%.

Question: With `CCN(CC)S(=O)(=O)c1ccc2c(c1)N(CC(=O)Nc1ccc(F)cc1)C(=O)CO2` as the molecule, how does the survival read?
Answer: The survival was inactive: 75%.

Question: Which survival does the source give for `CCn1c(=O)cc(OCC(=O)Nc2cc(OC)c(OC)c(OC)c2)c2ccccc21` here?
Answer: The survival was inactive: 47%.

Question: With `COCCNC(=O)CSc1nc2ccccc2nc1Cc1ccc(C)cc1` as the molecule, how does the survival read?
Answer: The survival was inactive: 78%.

Question: For `COc1cccc(N2CCN(c3ccc4nnc(CCC(=O)O)n4n3)CC2)c1`, which survival is on record?
Answer: Its survival is inactive: 89%.

Reference: PubChem BioAssay AID463173 (ICCB-Longwood Screening Facility, Harvard Medical School, 2010)
